Source: ChEMBL document CHEMBL4888484, “Replenishing the malaria drug discovery pipeline: Screening and hit evaluation of the MMV Hit Generation Library 1 (HGL1) against asexual blood stage Plasmodium falciparum ,using a nano luciferase reporter read-out” (2022)
The whole screen tested about 150,000 compounds, of which about 540 (0.36%) showed an effect of 50% or more. This is one part of the list.

system: Plasmodium falciparum; assay: Primary screen in NF54 nanoGlo assay, in single point, at 2uM, 72h; a lower Z score goes with more inhibition; format: functional, Erythrocyte; settings: timepoint 72 hour

Row | SMILES | % Inhibition | Z score
1 | CCOC(=O)N1[C@@H]2CC[C@H]1c1c(nc(N)c(C#N)c1-c1ccccc1OC)C2 | 0% | -0.02
2 | O=C(Nc1ccc(-c2noc(=O)[nH]2)cc1)C1(c2cccc(F)c2)CCC1 | -4% | 0.57
3 | COc1ccc(CN2[C@@H]3CC[C@H]2C[C@@H](O)C3)cc1F | -3% | 0.39
4 | COc1ccccc1[C@@H]1CC(c2c(O)n(C)c(=O)n(C)c2=O)=NN1C(C)=O | -16% | 2.23
5 | COc1cccc([C@H]2CN(C(=O)c3cnc(C)nc3)[C@@H]3C4CCN(CC4)[C@H]23)c1 | -6% | 0.87
6 | CCOc1ccc(Cc2c(O)nc(O)nc2O)cc1 | 2% | -0.33
7 | Cc1nn(C)c(C)c1CN1C2CCC1C(C(=O)OC(C)(C)C)C2 (stereo not drawn) | 2% | -0.29
8 | O=C(c1ccsc1)N1CCN(CCF)CC1 | 4% | -0.5
9 | CC(O)(CN1C2CCC1CC(=O)NC2)C(F)(F)F (stereo not drawn) | 1% | -0.19
10 | CCC(CC)c1cc([C@H]2CN3CC[C@H]2C[C@@H]3CNS(=O)(=O)Cc2ccccc2)nc(-c2ccncc2)n1 | 75% | -9.43
11 | COc1ccc2c(c1)C[C@H](NC(=O)N1CCC3(CC1)OCCO3)CO2 | -13% | 1.8
12 | Cc1nc(CN2C3CCC2CC(C)(O)C3)oc1C (stereo not drawn) | -11% | 1.7
13 | CCCNc1ncc(CN2CCNC(=O)C23CCCC3)cn1 | -9% | 1.25
14 | CC(C)N1CCN(c2ccnc(C3CC3)n2)CC1 | 3% | -0.47
15 | C[C@@H](Cc1ccc(Cl)cc1)NCc1nc(C(F)F)no1 | -7% | 1.2
16 | COc1ccc2c(c1)OC[C@@]1(C(=O)O)CN(C(=O)c3cc(C)ccc3C)C[C@@H]21 | -8% | 1.29
17 | COCCn1ccc(C(=O)NC(C)(C)c2ccc(F)cc2Cl)n1 | 4% | -0.52
18 | C[C@@H](Cc1ccc(O)cc1)NCc1cc[nH]n1 | 37% | -1.08
19 | Cc1cccc(=O)n1C[C@](C)(O)C(=O)Nc1cc(CC(C)(C)C)n[nH]1 | -13% | 1.22
20 | COc1ccc(-c2nc(-c3ccc4c(c3)oc(=O)n4C(C)C)no2)c(C)c1 | -15% | 1.48
21 | CC1CC(C)C2N(C1)c1ccccc1CC21C(=O)NC(=O)N(C)C1=O (stereo not drawn) | 1% | -0.13

Row | SMILES | % Inhibition | Z score
22 | C#C[C@H]1C[N@@]2CC[C@H]1C[C@@H]2CNCc1ccc2c(c1)OCO2 | 9% | -1.13
23 | COc1ccc(OC(=O)NC(C)C)cc1 | -14% | 1.7
24 | COc1cccnc1-c1cccc2c1CCNC2 | 14% | -1.98
25 | Cc1nc(CNCCc2c[nH]c3ccccc23)cs1 | -11% | 1.72
26 | O=C(Cn1c(-c2ccccc2)cc2ccccc21)N1C[C@@H]2C[C@@H](C1)c1cccc(=O)n1C2 | -10% | 1.93
27 | COc1ccc(-c2ccc3n(c2=O)C[C@H]2C[C@@H]3CN(S(C)(=O)=O)C2)cc1 | -2% | 0.44
28 | COc1cccc(CCNCc2c(Br)c(C)nn2C)c1 | -7% | 1.08
29 | Cc1ccc([C@@H]2CN(C(=O)c3cccc(O)c3C)[C@@H]3C4CCN(CC4)[C@@H]32)cc1 | -9% | 0.93
30 | CCC(=O)N1N=C(c2c(O)n(C)c(=O)n(C)c2=O)C[C@H]1c1ccc(N(CC)CC)cc1 | -4% | 0.77
31 | CCc1nccn1C[C@H](C)N(C)Cc1ncc[nH]1 | -14% | 2.14
32 | O=C(NCC#CCN1CCCC1)NCc1ccccc1 | -7% | 1.32
33 | O=C(Cn1c(-c2ccccn2)noc1=O)Nc1ccccc1-c1ccccc1 | -2% | 0.33
34 | Cc1n[nH]c([C@@H]2CN(C(=O)Cc3cccnc3)CCCN2Cc2ccccc2)n1 | -8% | 1.42
35 | COCCO[C@H]1COCCN(C2CCOCC2)C1 | 32% | -3.62
36 | O=C1NC(=O)C2(Cc3ccccc3N3CCCCCC32)C(=O)N1c1ccccc1 (stereo not drawn) | -1% | 0.2
37 | O=C(ON1CC1(C(F)(F)F)C(F)(F)F)c1ccccc1 (stereo not drawn) | -16% | 2.17
38 | Cc1oc2ncn(C)c(=O)c2c1C(=O)N1CCC2(CC1)OCCO2 | -6% | 0.95
39 | COc1cccc([C@H]2CCN(Cc3cccc4[nH]ccc34)C[C@@H]2O)c1 | -7% | 1.33
40 | COC(=O)C12CCCC1CN(Cc1cc[nH]n1)C2 (stereo not drawn) | 7% | -1.26
41 | c1ccc(CCN(Cc2cccnc2)Cc2ccoc2)cc1 | -1% | 0.23
42 | O=c1cccc2n1CC1CC2CN(C2Cc3ccccc3C2)C1 (stereo not drawn) | 5% | -0.6

Row | SMILES | % Inhibition | Z score
43 | Nc1ccc2c(c1)[C@H](c1ccccc1)NCC(=O)N2 | 28% | -3.16
44 | Cc1ccc2c(c1)[C@H]1CN(C)CC[C@@H]1N2C(=O)CC(n1cccn1)C(F)(F)F (stereo partly drawn) | -14% | 1.52
45 | COCCn1ccc(C(=O)N[C@H]2CCc3nc(C(C)C)nn3C2)n1 | 71% | -11.17
46 | CCC(=O)NCC(=O)N[C@@H](C)Cc1ccc(Cl)cc1Cl | -4% | 0.56
47 | CC1CCCC(C)C1NC1CC2CCC1O2 (stereo not drawn) | -3% | 0.39
48 | Cc1cc(CN2C3CCC2CC(=O)C3)ccc1F | -5% | 0.93
49 | CCn1nc(C)c(CN[C@@H](C)Cn2ccnc2)c1C | 2% | -0.34
50 | COc1cccc(CN2CC(C)OC3(CCOC3)C2)n1 (stereo not drawn) | -13% | 1.6
51 | COc1ccccc1C(=O)N1C[C@@H]2C[C@H](C1)c1c(-c3ccccc3F)ccc(=O)n1C2 | -7% | 1.08
52 | Cc1ccc2c(c1)C[C@]1(CN2C)C(=O)N(C(C)C)C(=O)N=C1O | -2% | 0.24
53 | O=c1[nH]c2ccccc2c(=O)n1-c1cccnc1 | -18% | 3.12
54 | O=S1(=O)CC[C@@H]2CN(Cc3ncccc3C(F)(F)F)C[C@@H]21 | 6% | -1.15
55 | CN(C)[C@@H](Cn1cnnc1)c1ccccn1 | -2% | 0.31
56 | CCn1cc(-c2ccc(F)cc2)cc1C(=O)N1CCC2(CC1)OCCO2 | -1% | 0.19
57 | Cc1ccc(C(=O)[C@@H]2CCCN2)cc1C | -13% | 1.72
58 | Cc1oc(S(N)(=O)=O)cc1C(=O)N1C2CCC1C(CO)C2 (stereo not drawn) | 0% | 0.04
59 | O=C1CO[C@H]2CN(Cc3ccccc3)C[C@H]2N1Cc1ccccn1 | 16% | -1.86
60 | O=C1NCCN2CCN(C(=O)c3ccc4ccccc4n3)CC[C@@H]12 | -2% | 0.41
61 | O=C(CCN1CCOCC1)OC1CC2CCC(C1)N2CCc1ccccc1 (stereo not drawn) | 32% | -3.66
62 | CCCn1cc(C(=O)Nc2ccccc2OCC)c2cccnc21 | -1% | 0.21
63 | O=C(Cc1ccccc1)N1CCN(Cc2ccc3c(c2)OCO3)CC1 | -12% | 2.22

Row | SMILES | % Inhibition | Z score
64 | CC(Cn1cc(Br)cn1)N[C@H](CCO)c1ccccc1 (stereo partly drawn) | 1% | -0.08
65 | CN(C)C(=O)Oc1cccc2ccc(CN3CCC(N4CCN(c5ccc(C(F)(F)F)cn5)CC4)CC3)nc12 | 47% | -2.74
66 | Cc1cc(N2C[C@H](c3ccccc3)[C@@H]3[C@H]2C2CCN3CC2)cc(C)n1 | -4% | 0.51
67 | CCOc1ccc(-c2c(C#N)c(N)nc3c2N2CCC3CC2)cn1 | -2% | 0.25
68 | CCc1nn(C)cc1CN1CC(C)CC1c1cccnc1 (stereo not drawn) | -12% | 1.53
69 | c1cnc(N2C[C@@H](c3ccc4c(c3)OCO4)[C@@H]3[C@H]2C2CCN3CC2)nc1 | -3% | 0.67
70 | OC[C@@H]1C[C@@H]2CC[N@]1C[C@H]2c1cn(-c2ccccc2)nn1 | -13% | 1.97
71 | O=C1NC(=O)N(c2ccccc2)C(=O)[C@H]1C(c1ccc(F)cc1)c1ccc(F)cc1 | -6% | 1.02
72 | c1cc(-c2nc([C@@H]3CN4CCN3CC4)no2)no1 | -11% | 1.49
73 | CCc1cccc(NC(=O)CN2C3CCC2CC(=O)C3)c1 | -6% | 0.77
74 | Cc1c(C)[n+]([O-])c([C@@H](c2ccc(Cl)cc2Cl)C2C(=O)NC(=O)NC2=O)n1CCO | -5% | 0.63
75 | CCn1cc(CN2CCC[C@]3(C2)CC3(F)F)nn1 | 1% | -0.09
76 | C[C@@H](Cc1ccc(Br)cc1)NCCS(C)(=O)=O | -2% | 0.35
77 | Cc1cc(COC(=O)c2cc(S(=O)(=O)F)c[nH]2)nc(C)n1 | -3% | 0.28
78 | O=S(=O)(NC[C@H]1C[C@@H]2CC[N@]1C[C@@H]2CN1CCc2ccccc21)c1cccs1 | 4% | -0.7
79 | CC12CNC[C@](C)(CN(Cc3ccccc3)C1)C2 | -11% | 0.96
80 | CCOc1ccc(-c2c(C#N)c(N)nc3c2[C@@H]2CC[C@H](C3)N2C)cn1 | -5% | 0.77
81 | CC(C)(C)n1nnc(C(=O)Nc2nccc3cc(Br)ccc23)n1 | -9% | 0.96
82 | Cc1nnsc1CN1C[C@@H](c2ccc3c(c2)OCO3)[C@@H]2[C@H]1C1CCN2CC1 | -5% | 0.57
83 | C[C@H]1CS(=O)(=O)C[C@H]1NC(=O)c1ccc2oc(=O)[nH]c2c1 | -8% | 1.62
84 | CC(c1nc(C2CC2)no1)N1C2CCC1COC2 (stereo not drawn) | 1% | -0.21
